# In the supplement of paper PMC12217912:
# The other results are listed elsewhere or left out. Sequences were assembled here from the parent chain. Inactive controls read about 0.05.
# B1: TEV protease; numbered along this chain (parent)
# chain: MGESLFKGPRDYNPISSSICHLTNESDGHTTSLYGIGFGPFIITNKHLFRRNNGTLVVQSLHGVFKVKDTTTLQQHLVDGRDMIIIRMPKDFPPFPQKLKFREPQREERICLVTTNFQTKSMSSMVSDTSCTFPSGDGIFWKHWIQTKDGQCGSPLVSTRDGFIVGIHSASNFTNTNNYFTSVPKNFMELLTNQEAQQWVSGWRLNADSVLWGGHKVFMVKPEEPFQPVKEATQL
# Variants of: B1
# Test: raw area under fraction-flipped curve 0-4 h after induction (AUC4h, not background-subtracted), DNA-recorder readout of cleavage of the substrate (dimensionless); higher = more cleavage of the substrate by the protease variant
# Conditions: temperature: 34 °C; time window: 0-4 h after rhamnose induction
# Protocol: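 In vivo DNA recorder in E. coli TOP10(DE3) ΔrhaA at 34 °C. Each TEVp single-site mutant (parent TEVp 0) is paired with a single-site variant of the 7-mer TEVs (canonical ENLYFQ|S). The substrate sits between flexible linkers in a Bxb1-sfGFP-TEVs-SsrA fusion, so cleavage stabilises Bxb1 and speeds flipping of a recombination array, read by NGS. The value is the raw area under the fraction-flipped curve over 0-4 h after rhamnose induction (AUC4h), with ≥20 reads per time point. It is not background-subtracted; inactive controls average about 0.047.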
# 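Note: Bxb1 expression induced with 0.2% (w/v) L-rhamnose at OD600 near 0.5, cultures sampled hourly, flipped fraction per protease–substrate barcode pair counted by paired-end Illumina sequencing.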
Variant,area with substrate CNLYFQS,area with substrate HNLYFQS,area with substrate LNLYFQS,area with substrate PNLYFQS,area with substrate SNLYFQS,area with substrate TNLYFQS,area with substrate WNLYFQS,area with substrate YNLYFQS,area with substrate FNLYFQS,area with substrate INLYFQS,area with substrate NNLYFQS,area with substrate KNLYFQS,area with substrate QNLYFQS,area with substrate GNLYFQS,area with substrate VNLYFQS,area with substrate RNLYFQS,area with substrate MNLYFQS
I110L,0.0681,0.0697,0.0553,0.08,0.0371,0.0646,0.0623,0.0626,–,–,–,–,–,–,–,–,–
I110Y,0.233,0.0632,–,–,–,0.0589,–,–,0.0629,0.0649,0.0746,–,–,–,–,–,–
C111P,0.0618,0.0282,–,0.0436,–,0.0504,0.0506,–,–,–,–,0.0556,0.0665,–,–,–,–
V113F,0.0606,0.0596,–,–,–,0.0554,0.0683,0.0653,–,–,–,–,–,–,–,–,–
V113I,0.0661,0.0711,–,0.0546,0.0707,0.0637,0.0608,–,0.0469,0.0632,–,0.0635,–,0.0889,–,–,–
V113R,0.0506,0.0514,0.0673,0.0587,0.059,0.0618,0.0568,0.0642,0.0525,0.0494,0.0571,0.0702,–,–,0.0484,–,–
T114E,0.0841,0.0618,0.0649,0.0598,0.0795,0.0824,0.0373,–,–,0.0664,–,–,–,–,–,–,–
T114I,0.0726,0.0575,–,0.0779,0.071,0.002,0.0407,–,–,0.0711,0.0623,–,–,0.0661,0.0447,–,–
T115A,0.0751,0.0592,0.0727,0.0594,–,0.1,–,–,0.066,0.0663,0.08,0.0638,–,–,–,0.0495,–
T115L,0.117,0.0623,–,0.0674,–,0.0593,0.0639,–,0.0422,0.0633,0.0464,0.066,–,0.0742,–,–,0.0662
N116H,0.0712,0.0596,0.0674,–,–,–,0.0589,0.0735,0.0719,0.113,–,0.0672,–,–,–,–,0.0663
F117A,0.11,0.1,–,–,0.0663,–,0.0599,–,–,–,0.0511,–,–,–,0.0498,–,0.0722
F117C,0.0618,0.063,0.0658,0.0673,0.0628,0.105,–,0.0551,0.0495,0.0517,0.0822,–,–,–,–,–,0.0617
F117Q,0.11,0.0722,0.0528,0.0683,0.0769,0.0482,0.068,–,–,–,0.091,–,–,–,0.0721,0.0347,–
F117S,0.0698,0.0584,–,0.0666,–,0.0611,0.0662,0.0396,–,–,0.0645,0.0479,–,–,0.065,–,0.0716
Q118D,0.0577,–,–,–,–,0.0566,0.0516,0.0672,–,0.0884,–,–,0.12,–,–,–,–
Q118I,0.0789,0.0619,–,–,–,–,–,–,–,0.0524,0.0781,–,–,0.064,0.0704,0.065,–
Q118K,0.104,–,–,0.0584,0.0661,–,0.067,–,–,0.0895,–,–,–,0.0816,–,0.0663,0.0672
Q118P,0.0787,0.0416,0.0707,0.0623,–,0.0649,0.0758,–,0.077,–,0.0735,–,–,–,–,–,–

Variant,area with substrate CNLYFQS,area with substrate HNLYFQS,area with substrate LNLYFQS,area with substrate PNLYFQS,area with substrate SNLYFQS,area with substrate TNLYFQS,area with substrate WNLYFQS,area with substrate YNLYFQS,area with substrate FNLYFQS,area with substrate INLYFQS,area with substrate NNLYFQS,area with substrate KNLYFQS,area with substrate QNLYFQS,area with substrate GNLYFQS,area with substrate VNLYFQS,area with substrate RNLYFQS,area with substrate MNLYFQS
Q118R,0.056,0.0569,0.0691,–,0.0762,–,–,0.0649,0.0469,–,–,0.0359,–,0.0672,0.0973,0.0546,–
T119D,0.048,0.0678,0.0194,0.0681,0.0678,0.0626,0.068,–,–,–,0.0304,0.0742,–,–,–,–,–
T119V,0.0695,0.0735,–,0.0693,0.0557,0.0713,–,–,0.061,0.065,–,0.0642,–,–,–,–,–
T119Y,0.0603,0.051,–,–,–,0.0594,–,0.0616,–,0.0616,0.0654,0.0791,–,–,–,–,0.074
K120S,0.0647,0.0555,0.0622,0.0701,0.0565,0.0585,0.0622,–,–,–,0.0788,0.0672,–,0.0588,–,–,–
M122R,0.0685,0.0683,0.0616,–,0.0663,0.0728,0.0603,0.0622,–,0.0369,–,0.0702,–,–,0.0733,–,0.0686
S123C,0.0715,0.0588,0.0599,0.0574,–,0.064,0.0649,0.0713,0.0609,–,0.0632,–,–,–,0.0611,–,0.0596
S123R,0.0825,0.0723,0.0633,–,–,0.0591,0.0577,0.0607,–,–,–,–,–,–,–,–,0.0603
S123Y,0.0517,0.0694,–,–,0.0584,0.0669,0.0685,–,0.0687,–,0.0651,–,0.0844,0.0836,0.0647,–,–
S124H,0.0711,0.0646,0.0885,–,0.078,–,–,0.0634,0.0622,0.0831,0.0828,–,–,0.0643,–,–,0.0817
S124L,0.0548,0.0517,–,0.0602,–,0.0683,0.0775,0.0557,–,–,–,0.0665,–,–,–,–,0.0676
S124N,0.0282,0.0691,0.0701,0.056,–,0.055,0.0609,–,0.0731,–,–,–,–,–,0.09,–,–
M125A,0.0806,–,0.0761,–,–,0.0991,–,0.0705,–,0.0663,–,–,–,0.0752,–,–,–
M125C,0.0733,–,0.0626,0.0561,–,0.0635,0.06,–,–,–,–,–,–,–,0.0771,–,–
M125G,0.0632,0.0626,0.0141,0.0706,0.0447,0.0628,–,0.06,0.0459,–,–,0.0711,–,–,–,–,–
M125H,0.0495,0.0644,0.0611,0.0742,–,0.062,0.0617,0.0668,0.0542,0.0641,0.0557,0.0609,–,–,0.079,0.0551,0.0582
M125I,0.074,0.0618,–,–,–,0.0563,–,0.054,–,–,–,–,–,–,0.0483,–,0.0722
M125P,0.0817,–,–,–,0.0568,0.0644,0.0506,0.0635,–,0.0685,–,–,–,–,0.063,–,–
M125Q,0.0655,0.0716,0.0588,0.062,0.0634,0.0624,0.0668,–,0.0711,0.0611,0.07,0.0723,0.0823,0.0739,0.066,0.0674,–
